Some of the results follow.
T1: UNK ZnF1-3 (human, UniProt Q9C0B0 31-174)
T1 sequence: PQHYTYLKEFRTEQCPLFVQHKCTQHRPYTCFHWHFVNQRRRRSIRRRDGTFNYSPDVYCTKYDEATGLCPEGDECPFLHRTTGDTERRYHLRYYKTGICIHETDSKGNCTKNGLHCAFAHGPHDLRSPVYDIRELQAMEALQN

B1: 107755505_107755625_722_5pUTR_ENSMUSG00000032582_ENSMUST00000035201|mouse|control|control (ssRNA)
RNA: GGGAGUUCUACAGUCCGACGAUCAGGUCCCUCCCCUCCUUGAUAGUCACCAUGUGGUCCAUCUCUACCUCCAUAGCUGAAAGAAUGCUCCUCUACAUUUGCAAAGGGAGGUCCUGAAUGCCCCUGGAAAUCAAAGGGAAGUGACAACAGAGGAUUGAGCAUCA
B2: chr1:39494564:39494565:+_ENSG00000168653_ENST00000372967|hu_hu|hu_hu_hu_mus_True|18_48 (ssRNA)
RNA: GGGAGUUCUACAGUCCGACGAUCAUGCAUUCGCCUCAUCGUUUUGUACCGAAGCAAGCACUCUUCGAAGUCAUCGAACUCUAUCUUGCACUCUUUCUUCGCCCGGGUCCCACCGAUUCCAUGUGCACACUCUAUCCACUCUUUCAACAGAGGAUUGAGCAUCA
B3: chr10:70731730:70731731:+_ENSG00000165732_ENST00000354185|hu_hu|FALSE|FALSE (ssRNA)
RNA: GGGAGUUCUACAGUCCGACGAUCAACCUCAGGGAUGUCUAACCCACGUGCAGCAACAUUGGUUGCCACCAAAACUCCAAAACUACCAUUUCUAAAACCUUUCAGGGUGAUUUCCCUUUGCUUCUGUGGAAUGUCUCCAUGCAACAACAGAGGAUUGAGCAUCA
B4: chr4:83978449:83978450:+_ENSG00000138663_ENST00000264389|hu_hu|motif|central (ssRNA)
RNA: GGGAGUUCUACAGUCCGACGAUCUAUUGUCUUGUAAGAGAGCUCAUUGUACCUUUGUGCAGCUUCAAUGAAUUUUCUUCGGUAAUCAAGAACACGUGCAUAGCAUACCUUAUAAUGUAUCUGUAAUUGUUCAUUGGUUGAUUCCAACAGAGGAUUGAGCAUCA
B5: chr16:57473197:57473198:-_ENSG00000005194_ENST00000569370|hu_mus|motif|central (ssRNA)
RNA: GGGAGUUCUACAGUCCGACGAUCGAUCCGGGCCAUCUCAGCCAGAACCUCAGCACUGUGCAGAGAGGUGCUUCCUGGGACGGCACCCGACAGAAUGACAUCGAAGCUGGAUUCCUUAUGCGAAGACUGCAACAGCUGGGUGACCAACAGAGGAUUGAGCAUCA
B6: chr8:117878989:117878990:-_ENSG00000164754_ENST00000297338|hu_hu|hu_hu_hu_mus_True|38_108 (ssRNA)
RNA: GGGAGUUCUACAGUCCGACGAUCCCAGAGGCCCUCUUUUACUGAGGACAAAAUGUGCGUAGAACAUUUUUCUUAUUUGCUAUGAAAUAAGAAGAAAACCUUGCUCUGGCGGGGAGCCGGGAGGGGUGGGUGGCCCGGGGAGGGCAACAGAGGAUUGAGCAUCA
B7: chr7:7679991:7679992:-_ENSG00000106399_ENST00000396682|hu_hu|hu_hu_hu_mus_False|8_38 (ssRNA)
RNA: GGGAGUUCUACAGUCCGACGAUCUGGGAUGAAUCUUUUCCAGCUUCCCCACGAAGCACACGGGCCGGUCGAUAUACUGUGGUAACAUGCUGGCGUUGAUGCGCGACUUGGGGAGCUGCAUUAUGUCCACCAUGAUUCUGCCGCCAACAGAGGAUUGAGCAUCA
B8: chr9:21312366:21312367:-_ENSMUSG00000032180_ENSMUST00000034698|mus_mus|motif|central (ssRNA)
RNA: GGGAGUUCUACAGUCCGACGAUCAGGGUGGGGGGCAGCACCACAGCUUCACCCCAUCCUGAUAGCUGCAAGACUGAAGCGGAGGCACGAUUUCAGGAGAAAGCCAGGGCAUCCAAGAGCAGUGUCCCCACACUGCUGCGCCCACAACAGAGGAUUGAGCAUCA
B9: chr4:25749455:25749456:-_ENSG00000091490_ENST00000264868|hu_hu|hu_hu_hu_mus_False|8_8 (ssRNA)
RNA: GGGAGUUCUACAGUCCGACGAUCGCACUAUGACCUCUAGAAAAAUCCACAGGGGGAAAAAAUGUAAACCAAUGUACAAUGUUAUCGCCUUCCCUGUGUGUGGAGUGUUUGUCUCAAGGCUCCUUCUUGCCUUAUAAUUUGGGACAACAGAGGAUUGAGCAUCA
B10: 123813400_123815043_1116_CDS_ENSG00000139697_ENST00000420886|human|control|control (ssRNA)
RNA: GGGAGUUCUACAGUCCGACGAUCCACACUCCCAUUAUGUUUGGAAGAAAUUUUUCCGUAUUUAAACUUAUUUAACGAAUGAACCAAAAUGUUUUUUGCUCCAAUAUCCCUUAAAUCUCUUUCAGCAUCAUACUUUAAGUCAUUCAACAGAGGAUUGAGCAUCA
B11: chr4:40680069:40680070:+_ENSMUSG00000028410_ENSMUST00000030118|mus_mus|motif|central (ssRNA)
RNA: GGGAGUUCUACAGUCCGACGAUCAGUCAGAGCUUUUAUAUUUGUGUUUAUUCUUCAUUUAACUUUUUUUAAAACACGGCGGUAGUUGAAUAUUAAAACAAAAACAAUAGCCAAGUAGUGAGCUUAUUAUGAUUACAGUCCUUCCAACAGAGGAUUGAGCAUCA
B12: chr12:73895003:73895004:+_ENSMUSG00000021096_ENSMUST00000021514|mus_mus|FALSE|FALSE (ssRNA)
RNA: GGGAGUUCUACAGUCCGACGAUCUUCACUGAUAGUGAUUUUAAAGCAGUUCAUAAUUAAAUAUGAGCACUUUGUACAAGGACAAUUACACUUUACAAAAACCAAAAUCAUACAACAAAAAUUGCUGGAGUCUGAUUUACAACACAACAGAGGAUUGAGCAUCA
B13: chr11:4127340:4127341:+_ENSG00000167325_ENST00000300738|hu_mus|hu_hu_hu_mus_False|28_28 (ssRNA)
RNA: GGGAGUUCUACAGUCCGACGAUCGGCAUAGUCAGGGUGCUUCGUGGUCAAGGUCGCGGCUGUCUCAGCAGCCAGGGUGUCCAGUUCCACUGUGGUGACCCCACUAUACAAGCCUUGGAUUACUUUCAUGGUGAUCUGAGCAGGCAACAGAGGAUUGAGCAUCA
B14: chr19:7302888:7302889:-_ENSMUSG00000024764_ENSMUST00000025675|mus_hu|FALSE|FALSE (ssRNA)
RNA: GGGAGUUCUACAGUCCGACGAUCAAUUUCAAAUUGCAACGCUUCUCUGAAGAACUGGUAGGCACCAUGAUUGUGUUUAAAUACUGUUAACAUAACCUUCUUCAUCUGUGUGCUGUUGGCCAUGAGCUGCAGGAUCUGUAUGAGCAACAGAGGAUUGAGCAUCA

target: T1, UNK ZnF1-3; experiment: nsRBNS (natural sequence RNA bind-n-seq); RBNS binding buffer (assumed for nsRBNS): 25 mM Tris pH 7.5, 150 mM KCl, 3 mM MgCl2, 0.01% Triton X-100, 500 ug/ml BSA, 20 U/ml SUPERase-In, 4 C; UNK is unkempt and MSI1 is Musashi-1; names of the RNAs are library labels; protein concentration not given here; high values mean tight binding

| Binder | binding signal |
| --- | --- |
| B1 | 1.18 enrichment R |
| B2 | 0.667 enrichment R |
| B3 | 0.951 enrichment R |
| B4 | 0.664 enrichment R |
| B5 | 0.995 enrichment R |
| B6 | 1.4 enrichment R |
| B7 | 0.394 enrichment R |
| B8 | 1.09 enrichment R |
| B9 | 0.867 enrichment R |
| B10 | 0.685 enrichment R |
| B11 | 1.4 enrichment R |
| B12 | 0.521 enrichment R |
| B13 | 1.01 enrichment R |
| B14 | 1.12 enrichment R |

— publication PMC12136788
